# Read counts are not given, so values of variants with three or more changes are uncertain.
# B1: OR4K15 (parent)
# chain: GUUAACGGUCAUAGGCCAUGGAAACUAGGAGCACCAUUUCGCUGCCAGUGAAGAAAUGAACAAAGAAAAUCUGGGCCAGGCAGGCAUCAAAAGAAAUAGUCUUGCGCUCAACCAGAAAGUCUGUAAUCAUUUUAAGGGUA
# Variants of: B1
# Experiment: self-cleavage, relative activity (ratio to wild type); higher = more cleavage; in vitro, sequencing; the parent is a self-cleaving ribozyme
row,Variant,self-cleavage
1,A5U U39A A69C U100A A125G,0.57
2,A59G U103C U108A A117G,0.01
3,U49C A60G A86U,1.49
4,G48A C61U A94U A140U,1.98
5,A22U A96G A111G U139G,0
6,A22G A60G U100C U108C A125G,0.01
7,A30U A64G C88U U102C,1.22
8,A22G A30G U39C A52G A117G,1.18
9,A30G U72A U103C U139C,0.19
10,U49A U57A A59U A86U,1.02
11,A22G A55G A60U U102C G115A A126G U133A,0.14
12,A23G A30G A96G U103C A118G,0.12
13,U19C A36U A66G A67G,0.97
14,U19C U49C A82U U87C,0.17
15,U2C A66G A67U,1.38
16,C25U A114G U132C,0.38
17,A66U A94C U102C,1.4
18,A54G A69G A91G A114G,0.33
19,A86U U103C U131C,0.49
20,U2C U39C A60G A111G U139A,0.02
21,U19C A30U A47U A62G A96G U122C,0.26

row,Variant,self-cleavage
1,A24G U70C U124C,0.36
2,A69G G83A U124C,1.02
3,A33G U72G A92G,0.03
4,A23G A68G G137A,1.99
5,A30G A47G U49C A51G,0.65
6,U39C A47U U122C,0.48
7,U26C A89U A116U,0.25
8,A78G A92G A129G,0.22
9,U12C A51C A52G,0.67
10,A27G A63G A86G,1.43
11,A22G G115A U132C,0.14
12,U2C C42U C46U U49C U132C,0.48
13,U9C G15U A24U U87C C112U U127C,0.01
14,G1U G14U A82U U87C A91G,0.11
15,A4G U103C A135G A140G,1.52
16,U49C U108C A118G,0
17,A118G U122C A140G,0.4
18,A89G U108A A140G,0.02
19,A51G A69U A94G A96U,0.82
20,G21C A60U A64G U100C,1.5
21,U43G A54G A118G,2

row,Variant,self-cleavage
1,A30U A52G A118G A126G,0.82
2,A30G C76U U127A,0.15
3,U19A U39C A86G U122C,0.63
4,A59U A64G U102C A111G,0.06
5,C6U A54G U87C U103C,0.5
6,A11G A33U A67G U72A U87A A96G A117G,0.34
7,A30G A69G A82G A110G U139C,0.07
8,A5G U12C U103C,1.74
9,U2C A30G A60G A89G,1.6
10,A18G A55G U102C U122C,1.43
11,U49C A62G U72A A82G,0.25
12,U3A A51G A78G A89U,0.21
13,A24G A69U C77G A135G,0.1
14,U19C A63G U87C,1.61
15,A51G A56G G123A,0.63
16,A24G A63G C77U,1.46
17,A22G U39C U120C,1.05
18,A23G A33G G41A,1.14
19,U9C A24G A30G A69G,0.94
20,A69G U87C A126G,1.03
21,A56G A60G U87C A94G A96G U130C,1.8

row,Variant,self-cleavage
1,A36U C42U A56G U70C U87C,0.84
2,A5G A66G G75A A82U A95G U108C,0.1
3,A30U A56G U133C,2.11
4,U9C A18G A67U,1.39
5,A33U A64G A90G A117G,1.96
6,A13G A52G A114U,0.2
7,U9A A60G A64U U108C,0.04
8,U39C A51U A117G,1.92
9,A51G A56G U132C,1.67
10,A36G A62G C105U,0.13
11,C10A G14U A82C A117C U131C,0.01
12,A18G C71U A78G U97A,0.45
13,G20A A52G A56G A63G,1.35
14,A22G U43C C105G G115A,0.02
15,U9C U39C U49G A51G,1.34
16,G31A A47G A94G,0.86
17,A13G A23G U37C,0.66
18,A18G A51G A90G,1.13
19,A59U A78U A90G,0.25
20,U2C C40U A110C,0.14

# Reference: the RNAGym collection of RNA variant scans (doi:10.7554/elife.90254)
